From publication PMC9911399, “Two distinct binding modes provide the RNA-binding protein RbFox with extraordinary sequence specificity”
Residue numbers refer to the chain shown, from its start. Some of the results follow.

B1: UCCAUCG (DNA:RNA)
RNA: GGGAGACCGGAAUUCAGAUUGUCCUCCAUCGUUAAAUCCCGUCGUAGCCACCA
DNA 1: CAATCTGAATTCCGGTCTCCC
DNA 2: TGGTGGCTACGACGGGATT
B2: AGUUCCG (DNA:RNA)
RNA: B1 RNA with U25A, C26G, C27U, A28U, U29C
DNA 1: CAATCTGAATTCCGGTCTCCC
DNA 2: TGGTGGCTACGACGGGATT
B3: UCAUAUC (DNA:RNA)
RNA: B1 RNA with C27A, A28U, U29A, C30U, G31C
DNA 1: CAATCTGAATTCCGGTCTCCC
DNA 2: TGGTGGCTACGACGGGATT
B4: GUGGAUA (DNA:RNA)
RNA: GGGAGACCGGAAUUCAGAUUGUCCGUGGAUAUUAAAUCCCGUCGUAGCCACCA
DNA 1: CAATCTGAATTCCGGTCTCCC
DNA 2: TGGTGGCTACGACGGGATT
B5: GUGUAUA (DNA:RNA)
RNA: B4 RNA with G28U
DNA 1: CAATCTGAATTCCGGTCTCCC
DNA 2: TGGTGGCTACGACGGGATT
B6: CUGAGUC (DNA:RNA)
RNA: B4 RNA with G25C, G28A, A29G, A31C
DNA 1: CAATCTGAATTCCGGTCTCCC
DNA 2: TGGTGGCTACGACGGGATT
B7: CCCAGUG (DNA:RNA)
RNA: B1 RNA with U25C, U29G, C30U
DNA 1: CAATCTGAATTCCGGTCTCCC
DNA 2: TGGTGGCTACGACGGGATT
B8: GUCAUAU (DNA:RNA)
RNA: B1 RNA with U25G, C26U, C30A, G31U
DNA 1: CAATCTGAATTCCGGTCTCCC
DNA 2: TGGTGGCTACGACGGGATT
B9: AAAAAUA (DNA:RNA)
RNA: B4 RNA with G25A, U26A, G27A, G28A
DNA 1: CAATCTGAATTCCGGTCTCCC
DNA 2: TGGTGGCTACGACGGGATT
B10: CGAAGAG (DNA:RNA)
RNA: B1 RNA with U25C, C26G, C27A, U29G, C30A
DNA 1: CAATCTGAATTCCGGTCTCCC
DNA 2: TGGTGGCTACGACGGGATT
B11: UUUAGUC (DNA:RNA)
RNA: B4 RNA with G25U, G27U, G28A, A29G, A31C
DNA 1: CAATCTGAATTCCGGTCTCCC
DNA 2: TGGTGGCTACGACGGGATT
B12: AAGCGAC (DNA:RNA)
RNA: B4 RNA with G25A, U26A, G28C, A29G, U30A, A31C
DNA 1: CAATCTGAATTCCGGTCTCCC
DNA 2: TGGTGGCTACGACGGGATT
B13: CGCCGAC (DNA:RNA)
RNA: B1 RNA with U25C, C26G, A28C, U29G, C30A, G31C
DNA 1: CAATCTGAATTCCGGTCTCCC
DNA 2: TGGTGGCTACGACGGGATT
B14: GCAAAAC (DNA:RNA)
RNA: B4 RNA with U26C, G27A, G28A, U30A, A31C
DNA 1: CAATCTGAATTCCGGTCTCCC
DNA 2: TGGTGGCTACGACGGGATT
B15: GAUACCU (DNA:RNA)
RNA: B1 RNA with U25G, C26A, C27U, U29C, G31U
DNA 1: CAATCTGAATTCCGGTCTCCC
DNA 2: TGGTGGCTACGACGGGATT
B16: GCGGCCC (DNA:RNA)
RNA: B4 RNA with U26C, A29C, U30C, A31C
DNA 1: CAATCTGAATTCCGGTCTCCC
DNA 2: TGGTGGCTACGACGGGATT
B17: AUACGGU (DNA:RNA)
RNA: B4 RNA with G25A, G27A, G28C, A29G, U30G, A31U
DNA 1: CAATCTGAATTCCGGTCTCCC
DNA 2: TGGTGGCTACGACGGGATT
B18: CCUAAAA (DNA:RNA)
RNA: B4 RNA with G25C, U26C, G27U, G28A, U30A
DNA 1: CAATCTGAATTCCGGTCTCCC
DNA 2: TGGTGGCTACGACGGGATT
B19: CUGCAUG (DNA:RNA)
RNA: B4 RNA with G25C, G28C, A31G
DNA 1: CAATCTGAATTCCGGTCTCCC
DNA 2: TGGTGGCTACGACGGGATT
B20: CCCCGCG (DNA:RNA)
RNA: B1 RNA with U25C, A28C, U29G
DNA 1: CAATCTGAATTCCGGTCTCCC
DNA 2: TGGTGGCTACGACGGGATT
B21: GCUGUAC (DNA:RNA)
RNA: B4 RNA with U26C, G27U, A29U, U30A, A31C
DNA 1: CAATCTGAATTCCGGTCTCCC
DNA 2: TGGTGGCTACGACGGGATT
B22: UCUGUCG (DNA:RNA)
RNA: B1 RNA with C27U, A28G
DNA 1: CAATCTGAATTCCGGTCTCCC
DNA 2: TGGTGGCTACGACGGGATT
B23: CACGCCG (DNA:RNA)
RNA: B1 RNA with U25C, C26A, A28G, U29C
DNA 1: CAATCTGAATTCCGGTCTCCC
DNA 2: TGGTGGCTACGACGGGATT
B24: CUGUGGU (DNA:RNA)
RNA: B4 RNA with G25C, G28U, A29G, U30G, A31U
DNA 1: CAATCTGAATTCCGGTCTCCC
DNA 2: TGGTGGCTACGACGGGATT
B25: UGCUCCG (DNA:RNA)
RNA: B1 RNA with C26G, A28U, U29C
DNA 1: CAATCTGAATTCCGGTCTCCC
DNA 2: TGGTGGCTACGACGGGATT
B26: AAGUGAA (DNA:RNA)
RNA: B4 RNA with G25A, U26A, G28U, A29G, U30A
DNA 1: CAATCTGAATTCCGGTCTCCC
DNA 2: TGGTGGCTACGACGGGATT
B27: GAGAGCC (DNA:RNA)
RNA: B4 RNA with U26A, G28A, A29G, U30C, A31C
DNA 1: CAATCTGAATTCCGGTCTCCC
DNA 2: TGGTGGCTACGACGGGATT
B28: UAGCAUU (DNA:RNA)
RNA: B4 RNA with G25U, U26A, G28C, A31U
DNA 1: CAATCTGAATTCCGGTCTCCC
DNA 2: TGGTGGCTACGACGGGATT
B29: CCCGAUA (DNA:RNA)
RNA: B4 RNA with G25C, U26C, G27C
DNA 1: CAATCTGAATTCCGGTCTCCC
DNA 2: TGGTGGCTACGACGGGATT
B30: AACUCUU (DNA:RNA)
RNA: B4 RNA with G25A, U26A, G27C, G28U, A29C, A31U
DNA 1: CAATCTGAATTCCGGTCTCCC
DNA 2: TGGTGGCTACGACGGGATT
B31: AGUUGCG (DNA:RNA)
RNA: B1 RNA with U25A, C26G, C27U, A28U, U29G
DNA 1: CAATCTGAATTCCGGTCTCCC
DNA 2: TGGTGGCTACGACGGGATT

Each binder was assayed against T1, RBFOX1 RRM (Homo sapiens, UniProt Q9NWB1 109-208) (assay: EMSA; HiTS-Eq, 1 nM pool, 10 min; buffer printed only for the single-RNA assays: 10 mM Tris pH 7.5, 150 mM NaCl, 3.4 mM EDTA, 0.001% NP-40, 30 C). Conditions: tags: His6 N-terminal (pET28a); label: 5' 32P.
T1 sequence: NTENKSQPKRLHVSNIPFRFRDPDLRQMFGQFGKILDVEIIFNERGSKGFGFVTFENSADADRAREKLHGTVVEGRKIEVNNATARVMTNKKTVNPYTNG
Outline: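 Purified wild-type or mutant RbFox RRM at increasing concentrations was equilibrated with 1 nM of 5′-radiolabelled RNA carrying 7 randomized nucleotides for 10 min in 50 µL. Unbound RNA was separated by 8% native PAGE and sequenced. Relative association constants came from read-count changes of each RNA species compared with the control reaction, normalised to the cognate motif.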

Row | Binder | binding signal
1 | B1 | 0.00468 KA relative to UGCAUGU
2 | B2 | 0.00968 KA relative to UGCAUGU
3 | B3 | 0.00151 KA relative to UGCAUGU
4 | B4 | 0.0166 KA relative to UGCAUGU
5 | B5 | 0.00691 KA relative to UGCAUGU
6 | B6 | 0.0162 KA relative to UGCAUGU
7 | B7 | 0.0079 KA relative to UGCAUGU
8 | B8 | 0.00217 KA relative to UGCAUGU
9 | B9 | 0.000283 KA relative to UGCAUGU
10 | B10 | 0.0149 KA relative to UGCAUGU
11 | B11 | 0.0158 KA relative to UGCAUGU
12 | B12 | 0.00386 KA relative to UGCAUGU
13 | B13 | 0.0109 KA relative to UGCAUGU
14 | B14 | 0.00147 KA relative to UGCAUGU
15 | B15 | 0.00312 KA relative to UGCAUGU
16 | B16 | 0.0172 KA relative to UGCAUGU

Row | Binder | binding signal
17 | B17 | 0.00622 KA relative to UGCAUGU
18 | B18 | 0.000973 KA relative to UGCAUGU
19 | B19 | 1.04 KA relative to UGCAUGU
20 | B20 | 0.00596 KA relative to UGCAUGU
21 | B21 | 0.018 KA relative to UGCAUGU
22 | B22 | 0.0246 KA relative to UGCAUGU
23 | B23 | 0.00195 KA relative to UGCAUGU
24 | B24 | 0.0208 KA relative to UGCAUGU
25 | B25 | 0.0132 KA relative to UGCAUGU
26 | B26 | 0.00229 KA relative to UGCAUGU
27 | B27 | 0.0145 KA relative to UGCAUGU
28 | B28 | 0.0115 KA relative to UGCAUGU
29 | B29 | 0.00513 KA relative to UGCAUGU
30 | B30 | 0.000511 KA relative to UGCAUGU
31 | B31 | 0.0152 KA relative to UGCAUGU
